The source gives no read counts; variants with many changes may rest on few reads.
B1: LINE1-mini (parent)
chain: GGCAGAGCUCAACACAGCGUGGCAAAGUGGCUGUGGCUAGACUGCC

Variants of: B1
Assay: self-cleavage, relative activity (ratio to wild type); higher = more cleavage; in vitro, sequencing; the parent is a self-cleaving ribozyme

Variant | self-cleavage
C10U A16G G33U | 0.01
C10U C15U G17A G36U U38A G40A | 0.04
C10G G19A C37G U38A G44U | 0
C10U C15A U34A | 0.03
C10G G21A C37A G44C | 0
C10U A25U U32C C37G | 0.01
C10G G27U G44U | 0
C10G G19C A26C | 0.05
C10U C18G U20G A39U | 0.21
C10U C23A A25C G33A C37U | 0.03
C10U A11C U28C | 0.06
C10U A11C C31A G36C U43C C45U | 0.01
C10U C13U G21C A24U G30A | 0.04
C10G G22A A24U U32A U43A | 0
C10G G22A A25U G30U C37A | 0.01
C10U C13G A39G | 0.05
C10U C18G G19C C45A | 0.22
C10G G22U C45A | 0.02
C10U G19C G27A | 0.07
C10U G17C C18A G44A | 0.03
C10G C31G G35U G40U | 0
C10U A16G G30A U32G | 0.03
C10G G21U U34G | 0.07
C10U A11U A14U A26G U32G | 0.02

Variant | self-cleavage
C10G U28A G44U | 0
C10G G35U G44A | 0.07
C10U A11C A14C | 0.03
C10U A11C A25U | 0.04
C10G G27U C42A | 0.01
C10U G21C U34G C42U | 0.07
C10U A14C A16U G35C C45U | 0.04
C10G G40A G44A C45U | 0
C10U C23G A24U | 0.07
C10U C15U A16G G19A G27A C42G C46U | 0.05
C10U G17C C18A U43G G44U | 0.05
C10U C15U G36A | 0.06
C10U A16G G21U | 0.23
C10U A14U U20A A24U C31G | 0.01
C10U A11U A26U G40A G44A | 0.03
C10G G21U A25U C45G | 0
C10U A25C C37A | 0.02
C10U A11G G22C A41G | 0
C10U G17C G35U | 0.04
C10U G17C G19A C31A C46U | 0.3
C10U A12C G17C | 0.04
C10U G17U A24U G35C | 0
C10U G22U G40C C42U | 0.02
C10U C18U U38C | 0.58

Variant | self-cleavage
C10G G27U C37G C45G | 0.01
C10G G19U U20C | 0.02
C10U A11C G22C | 0.02
C10U C13G A16U A39U C45U | 0.04
C10G G29A G44U | 0.04
C10U C18A U43A | 0.05
C10G G35C U43A | 0.02
C10U C13G G33U G36U | 0.02
C10U C13U G33C | 0.03
C10U A14U C18G U32G C37G | 0.04
C10U C13A G21C A25U G29A | 0.01
C10U A12G A24C U38G | 0.01
C10U A11U G17U | 0.05
C10U A11G C13G G40C | 0.01
C10U A16U G19U A25C A39C | 0.01
C10U C23U A24C A25U C45A | 0.03
C10U C15A C31A G33A | 0.03
C10G G36A C45A | 0.02
C10U C15G C46A | 0.02
C10U A11U A25U U34A C37U | 0.02
C10G G36U A41G | 0
C10G G19U U28C A41C | 0.02
C10U A16G C46U | 0.07
C10U C37A C45A | 0.01

Variant | self-cleavage
C10U A16G C37G U38A C42G | 0
C10U C15U G17C A26G G40A | 0.01
C10U G17U C37A G40A | 0
C10G G36U C37G | 0.01
C10G G22U G29U U32C | 0.01
C10U A14C C15U | 0.05
C10G G22C C31A G36A | 0.03
C10U A16G U20A C42U | 0
C10G U28G G35U C45U | 0.01
C10U C31A C45U | 0.25
C10U G22U G35A C45A | 0.04
C10U C31U G35U | 0.07
C10U A12G C18A U38A | 0
C10U C13A C15U C23A | 0
C10U C31U G44U | 0.02
C10G U28G C37A C42G C45A | 0.01
C10U G21A U28A G35A | 0.08
C10G U20G U38C | 0
C10G G30A C45U | 0.1
C10U A14G C18G C31U C37A G44C | 0.01
C10U G17C A24U | 0.82
C10U G19C G21A | 0.05
C10U G17A A24G A39U | 0.52
C10U C15U A16C G22C A25U U32C C42U | 0.01

Variant | self-cleavage
C10U C15A G21C A26C G36A | 0.01
C10G U32A C42A | 0.01
C10G G33U C37U | 0.01
C10G G22U A24C U38A | 0.01
C10U A25G G27U | 0.3
C10G U20C C37A C42U G44C | 0
C10U A16G G44A C46G | 0.06
C10U A14U U20A U32G G35A C46A | 0
C10U G17U A26C | 0.71
C10G G19U C31A G40C A41C G44A | 0
C10U G19A U20C C37G C42U | 0
C10G G35U C45U | 0.02
C10U G21A C23U G27C G44U | 0.05
C10U C15G C18U C31G | 0.02
C10U A14U A39U C46G | 0.02
C10U G22U A25U | 0.4
C10U A26G G29A | 0.41
C10U A11U C13G | 0.05
C10U C13G A14G C37A C45U | 0.03
C10U G21U G40A C42G | 0.03
C10G U28A C46A | 0.05
C10U A16U G19C U43C | 0
C10U G19A A25G C45A | 0.31
C10U G17C C31A | 0.1

Variant | self-cleavage
C10U G19U A39G C45U | 0.1
C10U G22U A24C A39C | 0.16
C10G U20C G40A | 0.01
C10U C13A A14C G30U | 0.02
C10U G19U A25U G27A U28A | 0.07
C10U G19A A39U C42G | 0.04
C10U A16U G30U G35U | 0.02
C10U G17U A39U | 0.46
C10U A26G C46A | 0.19
C10U G21U G33U G35U U38C C46G | 0.01
C10U G19A G29C A41C | 0.01
C10U A14G U20A C23U | 0.15
C10U C18A G19U G22C U28C G44U | 0.03
C10U A12U A16U | 0.06
C10U A24G U38A | 0.01
C10U G17U C23A G33C | 0
C10U G19C U20A C23U | 0.12
C10U G17U G27A C42A U43C | 0.03
C10G G21A C31G | 0.04
C10U A16G A24G | 0.81
C10U G19U C23A G36U G40C A41G | 0.01
C10U A14C G30A G35C C45G | 0
C10G G29C G36C | 0.01
C10G G29U G44C | 0.06

Variant | self-cleavage
C10U A12U G19U G30C | 0.15
C10G G17C G19A C37G | 0.02
C10U A39C A41G C46A | 0.05
C10U A16C C18A A39U A41U | 0.04
C10U A16C G40C | 0.06
C10G G22U G36U | 0.02
C10U C15A G29C G36C C45G | 0
C10U A14U A16G G17A G29A U43G | 0.03
C10G G29C C31A | 0.1
C10G G21U G27A G29A G30U | 0.24
C10G U20C G27A U28G G33U | 0
C10U C31A U34G | 0.01
C10U A41C C46A | 0.05
C10U G17U C18U U43A | 0.02
C10U A11G C18U U20A A25C G29A U43C | 0
C10G G17U G22A G30U | 0.21
C10U A11C U28C C37A | 0.02
C10G G21C G27A | 0.03
C10U G22C C23A U28C G35A C37A | 0
C10U A14G G36U A39U | 0.06
C10G G19A G30A | 0.23
C10U A41G C46A | 0.04
C10U A16G A24C U34C A39C G44A C46G | 0

Source: the RNAGym collection of RNA variant scans (doi:10.7554/elife.90254)
